Measurements as given in PubChem BioAssay AID686971 (National Center for Advancing Translational Sciences (NCATS), 2013).
In all, about 360,000 compounds went through this assay and about 7,500 (2.1%) were called active. The inconclusive results got no clear call from the source; some entries with a clear call stand among them for comparison. Calls come from the whole dose curve; as a rule, active = well fitted cell-killing curve with a large enough effect; inconclusive = small, poorly fitted or top-dose-only effect, or effect the other way, or another doubt; inactive = no such curve, though single readings can be large or run the other way. Potencies of inconclusive entries are left out as doubtful fits.
Potency is the fitted concentration of half-maximal effect; tags give direction and shape of the fitted curve.

Experiment: qHTS for induction of synthetic lethality in tumor cells producing 2HG: qHTS for the HT-1080-IDH1KD cell line;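 for activity, negative = toxicity: 0% = DMSO wells and -100% = cell-free medium wells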
Conditions: HT-1080 IDH1 knockdown viability, ATP luminescence, 48 h; activity, negative = toxicity: at 46.1 µM (top of the series) unless noted
Procedure, shortened: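 Viability of IDH1-knockdown HT-1080 fibrosarcoma cells was assessed by CellTiter-Glo after 48 h at 37 °C with titrated compound; concentration-effect curves were classified by fit quality and response size.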
For `CCOc1ccc2[nH]c3c(NCCC(C)C)ncnc3c2c1`, the Potency was inconclusive [cytotoxic, single point]. In the case of `COc1ccc(C2=Nn3c(nnc3-c3ccncc3)SC2)cc1OC`, the Potency is reported as inconclusive [cytotoxic, partial curve]. For `COc1ccc(CCNC(=O)COc2ccc3c(C)cc(=O)oc3c2)cc1OC`, the Potency was inconclusive [cytotoxic, single point]. With `COc1cccc(CNc2nc3cc(-c4cnn(Cc5ccccc5)c4)sc3c(=O)n2C)c1` the Potency was inconclusive [cytotoxic, single point]. For `CCOC(=O)c1c(C)n(C)c2cc(-c3ccc(C)cc3)c(O)cc12`, the Potency was “inactive”. For `CCN(C(=O)COC(=O)c1ccc(F)c(S(=O)(=O)N2CCOCC2)c1)C1CCS(=O)(=O)C1` (centres undefined), the Potency was “inactive”. For `CCCN1CCN(C(=O)CCn2c(=O)c3cccn3c3cccnc32)CC1`, the Potency was “inactive”. For `CSc1ncc2c(=O)[nH]c(-c3ccccc3)nc2n1`, the activity, negative = toxicity was inconclusive: 32.2%. For `c1ccc(CCNc2ncnc3sccc23)nc1`, the Potency was inconclusive [cytotoxic, partial curve]. In the case of `Cc1cc(C)c(CN2CCN(CCCn3cnc(C(=O)Nc4ccc(C)c(C)c4)n3)CC2)c(C)c1`, the Potency is reported as inconclusive [cytotoxic, single point]. In the case of `S=C(NCc1ccccn1)Nc1ccc(Cl)c(Cl)c1`, the Potency is reported as “inactive”. In the case of `CCCCNC(=S)Nc1ccc2nc(N3CCN(CC)CC3)cc(C)c2c1`, the Potency is reported as inconclusive [cytotoxic, single point]. In the case of `CCOc1ccc(NC(=O)Nc2cccc(C(=O)O)c2)cc1`, the Potency is reported as inconclusive [cytotoxic, full curve]. In the case of `Cc1[nH]c2ccc(F)cc2c1CCN(Cc1cccnc1)C(=S)Nc1ccc(F)cc1`, the Potency is reported as “inactive”. For `Cc1cc(C(=O)N/N=C/c2ccc(N(C)C)cc2)c2ccccc2n1`, the Potency was active: 3.26 µM. For `CC(C)c1ccc(CNc2nc(NCC3CC3)nc3ccsc23)cc1`, the Potency was active: 18.4 µM. With `COc1ccc(CN(C)C(=O)/C=C/[C@H]2O[C@@H](n3cc(C)c(=O)[nH]c3=O)C[C@@H]2O)cc1OC` the Potency was inconclusive [rising, partial curve]. In the case of `Cc1cc2ccccn2c1C(=O)c1ccc([N+](=O)[O-])o1`, the Potency is reported as active: 16.4 µM. With `CC(=NC(C)C)C1=C(O)C(C)OC1=O` (centres undefined) the Potency was “inactive”. With `O=c1[nH]c(NCCO)c(N=Cc2ccccc2)c(=O)[nH]1` the Potency was “inactive”. In the case of `O=C(/C=C/c1ccc(O)c(O)c1)OCCc1ccccc1`, the Potency is reported as inconclusive [cytotoxic, partial curve]. For `CC(C)(C)CC(=O)Nc1nc(C(N)Cc2ccc(C(F)(F)F)cc2)cs1` (centres undefined), the Potency was active: 18.4 µM. In the case of `COc1cccc(-c2nn(C)c3sc(C(=O)NCCCN(C)Cc4ccccc4)cc23)c1`, the Potency is reported as active: 18.4 µM. With `O=C(CCc1ccc(Oc2cc([N+](=O)[O-])cc([N+](=O)[O-])c2)cc1)NC1CCCC1` the Potency was “inactive”. In the case of `COc1ccc(N(CC(=O)O)S(=O)(=O)c2ccc(C)cc2)cc1Cl`, the Potency is reported as “inactive”. For `O=C(/C=C/c1ccc(Cl)cc1Cl)n1cccn1`, the Potency was inconclusive [cytotoxic, single point]. With `COC(=O)c1cc(OC)c(OC)cc1NC(=O)Cc1ccccc1[N+](=O)[O-]` the Potency was inconclusive [cytotoxic, single point]. With `CCCCN(CCCC)C(=S)N/N=C/c1c(C)[nH]n(-c2ccccc2)c1=O` the Potency was active: 6.51 µM. In the case of `COc1ccc(NS(=O)(=O)c2ccc(O)c(NC(=O)c3ccc(S(=O)(=O)N4CCCCCC4)cc3)c2)cc1`, the Potency is reported as inconclusive [cytotoxic, single point]. In the case of `COCCn1cc(-c2csc(N)n2)c2ccccc21`, the Potency is reported as “inactive”. In the case of `O=c1[nH]c(C2CCN(S(=O)(=O)Cc3ccccc3)CC2)nc2c1nnn2Cc1cccc(Cl)c1`, the Potency is reported as inconclusive [cytotoxic, single point]. For `O=S(=O)(NCc1ccccc1)c1ccccc1NCCc1ccccc1`, the Potency was “inactive”. For `Cc1cccc(OCCCCc2c(C)n[nH]c2C)c1C`, the Potency was inconclusive [cytotoxic, single point]. For `N#Cc1cccc(C=C(C(=O)c2ccccc2)c2ccccc2)c1`, the Potency was inconclusive [cytotoxic, single point]. For `Cc1cc(N2CCN(C)CC2)nc2ccc(NC(=O)c3ccccc3F)cc12`, the Potency was inconclusive [cytotoxic, single point]. For `O=c1cc(-c2ccc(O)cc2)oc2ccc3ccccc3c12`, the Potency was inconclusive [cytotoxic, single point]. For `CC(C)(C)c1ccc(CC(=O)N2CCC2(C)C(=O)NCc2ccc(Cl)cc2)cc1` (centres undefined), the Potency was active: 25.9 µM. In the case of `Cc1cc(C(=O)CCl)c(C)n1-c1cccc([N+](=O)[O-])c1`, the Potency is reported as inconclusive [cytotoxic, single point]. For `O=C(CSCc1ccc(Cl)cc1)NCc1ccccn1`, the activity, negative = toxicity was inconclusive: -25.2% [cytotoxic]. In the case of `CC1(c2ccc([N+](=O)[O-])cc2)NC(=O)NC1=O` (centres undefined), the Potency is reported as “inactive”. In the case of `C/C(=N\NC(=O)C(C)n1nc(C)c([N+](=O)[O-])c1C)c1ccccc1O` (centres undefined), the Potency is reported as active: 9.2 µM. With `COc1ccc2nc(Nc3ccc4c(c3)OCO4)sc2c1` the Potency was inconclusive [cytotoxic, single point]. In the case of `CCOc1cc2c3c(c1)C1(Nc4ccccc4S1)C(=O)N3C(C)(C)CC2C` (centres undefined), the Potency is reported as inconclusive [cytotoxic, single point]. For `CCOC(=O)c1c(NC(=O)COC(=O)CCOc2ccc(C)cc2)sc(C(=O)N(C)C)c1C`, the Potency was “inactive”. In the case of `Nc1nc(-c2cccc(NS(=O)(=O)c3ccccc3)c2)cs1`, the Potency is reported as “inactive”. With `CCN1CCN(S(=O)(=O)c2ccc(OC)c(NC(=O)c3ccccc3F)c2)CC1` the Potency was “inactive”. For `CCCCCCc1cc2cc(-c3nnc(-c4ccccc4OC)o3)c(=O)oc2cc1O`, the Potency was inconclusive [cytotoxic, single point]. In the case of `CCN(CCCNC(=O)COc1cc(=O)n(CC)c2ccccc12)c1ccccc1`, the Potency is reported as “inactive”. For `O=C(Cc1cccc2ccccc12)NNC(=O)Nc1cccc(Cl)c1`, the Potency was inconclusive [cytotoxic, single point]. For `Cc1cc(C)c(NC(=S)N(CCN2CCCCC2)Cc2ccco2)c(C)c1`, the Potency was “inactive”. In the case of `COc1ccc(C(=O)C2CCCN(C(=O)c3cccnc3OC)C2)c(C)c1` (centres undefined), the Potency is reported as “inactive”. With `Cc1ccc(-c2noc(N=O)c2NO)cc1` the Potency was inconclusive [cytotoxic, single point]. With `Cc1cccc(-c2ocnc2C(=O)Nc2ncc(C)s2)c1` the Potency was “inactive”. For `CCc1c(C)sc(NC(=O)Cn2nc(C(F)(F)F)c3c2CCCC3)c1C#N`, the Potency was inconclusive [cytotoxic, single point]. For `CS/C(=C\[N+](=O)[O-])Nc1ccc(Cl)cc1`, the Potency was inconclusive [cytotoxic, single point]. For `CCCn1c(-c2ccc(OC)cc2)nc2ccccc21`, the Potency was inconclusive [cytotoxic, partial curve]. With `CC(C)(O)C(=O)N=Nc1c(O)[nH]c2ccccc12` the Potency was “inactive”. In the case of `CCOC(=O)Cn1c(S(=O)(=O)Cc2ccccc2Cl)nc(-c2ccccc2)c1-c1ccccc1`, the Potency is reported as inconclusive [cytotoxic, partial curve]. For `CS(=O)(=O)c1ccc2nc(NC(=O)c3cccc(NS(=O)(=O)c4ccc(F)c(F)c4)c3)sc2c1`, the Potency was inconclusive [cytotoxic, single point]. In the case of `CCOC(=O)c1c(C)n(-c2ccc(C)cc2)c2ccc(O)c(CN(C)C)c12`, the Potency is reported as active: 16.4 µM. In the case of `CCc1ccc(N(C(=O)c2snc(C(N)=O)c2N)C(C(=O)NC2CCCC2)c2ccco2)cc1` (centres undefined), the Potency is reported as inconclusive [cytotoxic, single point]. In the case of `c1cncc(CSc2ccc(-c3cccs3)nn2)c1`, the Potency is reported as inconclusive [cytotoxic, single point]. In the case of `CCN(Cc1ccccc1)C(=S)NC(=O)c1ccccc1Br`, the Potency is reported as “inactive”. For `COc1cc(-c2cc(-c3ccc(O)cc3)nc(N)c2C#N)ccc1O`, the Potency was inconclusive [cytotoxic, single point]. With `COc1ccc(/C=N/NC(=O)C(=O)Nc2ccccn2)cc1OC` the Potency was “inactive”. In the case of `CC(C)c1ccc(NC(=O)Nc2nc(C(N)c3ccccc3Cl)cs2)cc1` (centres undefined), the Potency is reported as inconclusive [cytotoxic, single point]. For `CCc1cccc(CC)c1NC(=O)/C(C#N)=C/c1ccccc1C(F)(F)F`, the Potency was inconclusive [cytotoxic, single point]. With `COC(=O)C(=N/Nc1ccccc1C(=O)OC)/C(C)=N/O` the Potency was inconclusive [cytotoxic, single point]. In the case of `CCCC(=O)N1CCN(c2ccc(NC(=O)c3ccc([N+](=O)[O-])o3)cc2Cl)CC1`, the Potency is reported as inconclusive [cytotoxic, full curve, poor fit]. For `O=C1N(c2ccccc2)C[C@@H]2C[C@@H](c3cc4ccccc4o3)N3CCC[C@@]123`, the Potency was active: 0.58 µM. With `Cc1ccc(C=NNC(=O)c2cc(-c3cccnc3)nc3ccccc23)o1` the Potency was inconclusive [cytotoxic, full curve]. With `Cc1ccc(C)c(NS(=O)(=O)c2cc(C(=O)NCCC3=CCCCC3)ccc2C)c1` the Potency was inconclusive [cytotoxic, single point]. In the case of `COc1ccc(-c2nc3cc(C)c(Br)c(C)n3c2CC(C)(C)C)cc1OC`, the Potency is reported as inconclusive [cytotoxic, single point]. For `CCc1nc2ccc(C(=O)Nc3ccc(OC)c(OC)c3)cn2c1N(CCC(C)C)CCN(C)C`, the Potency was inconclusive [cytotoxic, single point].
